The values below come from patent US5607922A, “1,5-anhydrohexitol nucleoside analogues” (Stichting Rega VZW, priority 1992, dated 1997).

Assay [1] concerns TK- Cheng C 158/77 (herpes simplex virus missing a specific thymidine kinase). The experiment in a line: microbe, parasite or virus in culture. To be noted: Human alphaherpesvirus 1, E6SM, read-out: Minimum inhibiting concentration ED50 HSV-1 TK- Cheng C 158/77. The protocol:
(§1) The tests were based on the inhibition of virus-induced cytopathogenesis in cell cultures. A standard procedure is described by De Clercq et al., J. Infect. Dis. 141, 463 (1980) which is incorporated herein by way of reference.
(§2) Further, the inhibiting effect of the test compounds on virus multiplication in E6 SM cell cultures was measured making use of herpes simplex viruses missing a specific thymidine kinase. Three different strains were used: TK^- Cheng, TK^- Field and a clinically isolated strain VMW/837.

The subject of assay [2] is TK- Field C 137/101 (herpes simplex virus missing a specific thymidine kinase). As to the kind of experiment: microbe, parasite or virus in culture. To be noted: Human alphaherpesvirus 2, E6SM, read-out: Minimum inhibiting concentration ED50 HSV-2 TK- Field C 137/101. The protocol: as §1, §2
Assay [3] has as its system VMW/837 (herpes simplex virus missing a specific thymidine kinase). As to the kind of experiment: Inhibition of TK- herpes simplex virus, clinically isolated strain VMW/837, in E6 SM cell cultures. The assay is classed as cell-based. To be noted: E6SM, read-out: Minimum inhibiting concentration ED50 VV VMW/837 #3.
Assay [4] deals with Herpes simplex virus-1 TK- B2006. As to the kind of experiment: microbe, parasite or virus in culture. As to conditions: Human alphaherpesvirus 1, E6SM, read-out: Minimum inhibitory concentration Herpes simplex virus-1 TK- B2006. The protocol: as §1
(§3) The cytotoxicity and antiviral activity of compound 24 were tested in various cell cultures.

Assay [5] concerns Herpes simplex virus-1 TK- VMW1837. The experiment in a line: microbe, parasite or virus in culture. As to conditions: Human alphaherpesvirus 1, E6SM, read-out: Minimum inhibitory concentration Herpes simplex virus-1 TK- VMW1837. The protocol: as §1, §3

≈ marks a conversion by molar mass, not a printed value.

Take `Nc1nccc2c1ncn2[C@@H]1C[C@H](CO)[C@@H](O)[C@H]1O` (relative stereo) [C-c^3 Ado, carbocyl 3-deaza adenosine]: the EC50 in assay [1] was 70 µg/mL (≈ 265 µM); in assay [2], above 400 µg/mL; in assay [3], above 400 µg/mL; in assay [4], 70 µg/mL (≈ 265 µM); in assay [5], above 200 µg/mL.
In the case of `Nc1ncnc2c1ncn2C[C@H](O)CO` [(S)-DHPA, (S)-9-(2,3-dihydroxypropyl)-adenine], the EC50 in assay [1] is 400 µg/mL (≈ 1910 µM); in assay [2] it was above 400 µg/mL; in assay [3], above 400 µg/mL; in assay [4], 100 µg/mL (≈ 478 µM); in assay [5], above 200 µg/mL.
Regarding `O=c1[nH]c(=O)n([C@H]2C[C@H](O)[C@@H](CO)O2)cc1/C=C/Br` [BVDU, E-5-(2-bromovinyl)-2'-deoxyuridine], the EC50 in assay [1] came out at 10 µg/mL (≈ 30 µM); in assay [2], 10 µg/mL (≈ 30 µM); in assay [3], 4 µg/mL (≈ 12 µM); in assay [4] it was 1 µg/mL (≈ 3 µM); in assay [5] it was 70 µg/mL (≈ 210 µM).
Regarding `Nc1ncnc2c1ncn2[C@@H]1CO[C@H](CO)[C@@H](O)C1` [Compound 10, 1,5-Anhydro-2-(adenin-9-yl) 2,3-dideoxy-D-arabinohexitol], the EC50 in assay [1] amounted to 150 µg/mL (≈ 565 µM); in assay [2], 70 µg/mL (≈ 264 µM); in assay [3], 20 µg/mL (≈ 75.4 µM).
The corresponding values for `Nc1nc2c(ncn2[C@@H]2CO[C@H](CO)[C@@H](O)C2)c(=O)[nH]1` [Compound 13, 1,5-Anhydro-2-(guanin-9-yl)-2,3-dideoxy-D-arabinohexitol] are 20 µg/mL (≈ 71.1 µM), 20 µg/mL (≈ 71.1 µM) and 2 µg/mL (≈ 7.11 µM).
The corresponding values for `Cc1cn([C@@H]2CO[C@H](CO)[C@@H](O)C2)c(=O)[nH]c1=O` [Compound 17, 1,5-Anhydro-2,3-dideoxy2-(thymin-1-yl)-D-arabinohexitol] are above 200 µg/mL, above 200 µg/mL and above 200 µg/mL.
In the same order, the values of `O=c1[nH]c(=O)n([C@@H]2CO[C@H](CO)[C@@H](O)C2)cc1I` [Compound 18, 1,5-Anhydro-2,3-dideoxy-2-(5-iodouracil-1-yl)-D-arabino-hexitol] are above 200 µg/mL, above 200 µg/mL and 1 µg/mL (≈ 2.72 µM).
Turning to `Nc1ccn([C@@H]2CO[C@H](CO)[C@@H](O)C2)c(=O)n1` [Compound 20, 1,5-Anhydro-2-(cytosin-1-yl)-2,3-dideoxy-D-arabinohexitol], the EC50 in assay [1], in assay [2] and in assay [3] was 2 µg/mL (≈ 8.29 µM) throughout.
As for `CCc1cn([C@@H]2CO[C@H](CO)[C@@H](O)C2)c(=O)[nH]c1=O` [Compound 23, 1,5-Anhydro-2,3-dideoxy-2-(5-ethyluracil-1-yl)-D-arabinohexitol], the EC50 in assay [4] and in assay [5] was above 200 µg/mL throughout.
On to `O=c1[nH]c(=O)n([C@H]2C[C@H](O)[C@@H](CO)O2)cc1I` [IDU, 5-iodo-2'-deoxyuridine], for which the EC50 in assay [1] is 10 µg/mL (≈ 28.2 µM); in assay [2] it was 10 µg/mL (≈ 28.2 µM); in assay [3], 7 µg/mL (≈ 19.8 µM).
Consider `NC(=O)c1ncn(C2O[C@H](CO)[C@@H](O)[C@H]2O)n1` (stereo partly shown) [Ribavirin, 1-ribofuranosyl-3-carbamoyl-1,2,4-triazol], for which the EC50 in assay [1] is above 400 µg/mL; in assay [2], above 400 µg/mL; in assay [3] it was above 400 µg/mL; in assay [4], 100 µg/mL (≈ 409 µM); in assay [5], above 400 µg/mL.
